This passage reports binding signal results from PMC12136788.

Some of the results follow.

The labels stand for the following.
T1: UNK ZnF1-3 (human, UniProt Q9C0B0 31-174)
T1 sequence: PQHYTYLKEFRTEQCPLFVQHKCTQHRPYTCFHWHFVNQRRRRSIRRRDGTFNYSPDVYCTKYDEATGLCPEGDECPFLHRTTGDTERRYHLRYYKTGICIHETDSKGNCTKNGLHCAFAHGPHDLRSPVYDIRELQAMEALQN

B1: chr7:7679991:7679992:-_ENSG00000106399_ENST00000396682|hu_hu|hu_hu_hu_mus_False|1_78 (ssRNA)
RNA: GGGAGUUCUACAGUCCGACGAUCUGGGAUGAAUCUUUUCCAGCUUCCCCACGAAGCAGACAGGCUUGUCGAUAUACUGUGGUAACAUGCUGGCGUUGACGCGCGCUUUGGGGAGCUGCAUUAUGUCCUCCAUGAUUAUGGUCCCAACAGAGGAUUGAGCAUCA
B2: chr8:93522421:93522422:+_ENSMUSG00000056608_ENSMUST00000048665|mus_hu|motif|central (ssRNA)
RNA: GGGAGUUCUACAGUCCGACGAUCAGACUGGAUCAUUGCUUGAAGAUGAAAAUCAGAAGCAGCUGGAUUGUAAGUAUCUCGGAAUUCUCCAAGUAUUUUCUCCUCAGCACCUUUUAUAAGAUAUGGAUGAUUACAACAUUUCCUCAACAGAGGAUUGAGCAUCA
B3: chr4:147379129:147379130:-_ENSMUSG00000029016_ENSMUST00000137724|mus_hu|motif|central (ssRNA)
RNA: GGGAGUUCUACAGUCCGACGAUCCCGUCCAGUCAGUUUAGGGGAGGGAGGUAUUUGCAUUCUACUGUCUAUCUCUGGGCGGAACUGAUGGGAACAAAAUAUCUGGUGACUUAAACACAACAGGAUGUGCACGAGGGAUGAAUUCAACAGAGGAUUGAGCAUCA
B4: chr1:109605286:109605287:-_ENSG00000197780_ENST00000461096|hu_mus|hu_hu_hu_mus_True|1_98 (ssRNA)
RNA: GGGAGUUCUACAGUCCGACGAUCAAGUUUCAGAGUAUUCAGUGAUCACCUCUUUAAAUGCAAUUAUCCUUAUUAUAAGCUAAGCAGAAUAAUAAUUUAAUACCGUAAGUGAACUACACACAAAGCCUGAACCGCGAAACUACACAACAGAGGAUUGAGCAUCA
B5: chr3:20017139:20017140:+_ENSG00000144566_ENST00000273047|hu_mus|FALSE|FALSE (ssRNA)
RNA: GGGAGUUCUACAGUCCGACGAUCGAUAUCAUACACAACUAUGGCUGCUUGUGCUCCUCGGUAGUACAUUGGUGCUAAGCUAUGAUACCGUUCUUGACCAGCUGUAUCCCAUAUUUCAAAUUUUACUGUUGUGUCAUCAAGACACAACAGAGGAUUGAGCAUCA
B6: 42596325_42618074_664_CDS_ENSG00000124406_ENST00000264449|human|control|control (ssRNA)
RNA: GGGAGUUCUACAGUCCGACGAUCGUCAGCAGGUAUAUACUCUUUGCCUUUUAUUAUAACUAUAUCUCCAACAUUUACCUUUUCCCAGUGGACAAUUUCCCAAGCACCAUUUCUCAAAACUUGCGUUUGUUUCUUGUUCACUGCCAACAGAGGAUUGAGCAUCA
B7: 104830528_104867487_637_3pUTR_ENSMUSG00000028517_ENSMUST00000064139|mouse|control|control (ssRNA)
RNA: GGGAGUUCUACAGUCCGACGAUCGAUGCUCUCGUCAUUGCAGUAAAACCCUCGACGGUAAGGCUUAAUGGUGCUUGUCUCGAUGAUGAGGAAGGGCAGAGCCGCCAUGAAGAGGCAGAAGAGGUCCAGGCAGAUGAGCAGCACCAACAGAGGAUUGAGCAUCA
B8: chr12:110819636:110819637:-_ENSG00000196510_ENST00000455511|hu_hu|FALSE|FALSE (ssRNA)
RNA: GGGAGUUCUACAGUCCGACGAUCGAGCCGUAUGGCCUCCCGAAAGUGGAUUAUUGCUUCUUGGACUCUGCCCAUGUUCCUAAGUGCUGCUCCCUUAAGUAGCAGAGCUUGAACACUAUUACUGUUCAGCUGAAUGGCCUUGGCCAACAGAGGAUUGAGCAUCA
B9: chr17:87832841:87832842:-_ENSMUSG00000036438_ENSMUST00000040440|perfect_dup|FALSE|FALSE (ssRNA)
RNA: GGGAGUUCUACAGUCCGACGAUCACAACUUGGAAUGGAUUUGAGGCAAGUUGUGCCAUGAGCAGGUUUUCUUUAAGUGGCUAAACAAAGUUUAAAAAGCAAGUAACAAUAAAAGAAAAUGUUCCUGGUACAAUACCAGCAGUACAACAGAGGAUUGAGCAUCA
B10: chr19:16212804:16212805:+_ENSG00000167460_ENST00000300933|hu_mus|hu_hu_hu_mus_False|1_98 (ssRNA)
RNA: GGGAGUUCUACAGUCCGACGAUCAACAAUUCUGGAGAAGAACAUCAAUGUAACAUGGAACAGCAUUAAAGCUCAGUCAGAAGGCACAUGGGCAACAAUGAUCACCCCAGCAUUCUCGCUUGGAAUGCUUAAAGACAGAUGUUUCAACAGAGGAUUGAGCAUCA
B11: chr7:117129726:117129727:-_ENSMUSG00000047554_ENSMUST00000119929|mus_hu|FALSE|FALSE (ssRNA)
RNA: GGGAGUUCUACAGUCCGACGAUCCUUACUACGCCGAAGCGCCACGGCUAGAGCCACUUCCGGCGCGACCUCCUCACCCGAGACGACCUCAGCCCAGCGAGUACUGCAACCUCCUGCAAACACCCGCAGCGCCCACCACAGGCUCAACAGAGGAUUGAGCAUCA
B12: chr21:27062186:27062187:+_ENSG00000154721_ENST00000480456|hu_hu|FALSE|FALSE (ssRNA)
RNA: GGGAGUUCUACAGUCCGACGAUCACCCAGUUUCUUCCACUCUAAUCUGGAGGAAACAGUCUUCUUUGGGGUUUUGCAGGCUAAAAUAGCCUCUUGGUACUCUACUGCUGUGACUACUUGUUGGUCUUUUGGGGCAGAAAACCCCAACAGAGGAUUGAGCAUCA
B13: chr12:112777701:112777702:+_ENSMUSG00000021282_ENSMUST00000166123|mus_hu|motif|central (ssRNA)
RNA: GGGAGUUCUACAGUCCGACGAUCCGGUCUCUGACAUGAAAAAAUUUUCGCCACUGAGGCUGUAAGCUUCUUGCUUGUAUGCGGUGUUUCCCCAAUACAGGUACCAAUGGCUGCGCAACAGCUCUGAAAGAAAAAGGGAAAGAACAACAGAGGAUUGAGCAUCA
B14: chr15:58001004:58001005:+_ENSG00000255529_ENST00000299638|hu_hu|motif|central (ssRNA)
RNA: GGGAGUUCUACAGUCCGACGAUCAUCUGUACCCACAUCAACUUCUGCAAUUGCUUUUUGCCUUAGCUUACAGUCGGAACGGACAGGGUUAAACAGUUCACUUUUUCUUCUAACUUCUUCACAUUCUGCAAUGGCAGCUUUCAGCAACAGAGGAUUGAGCAUCA

This assay has as its target T1, UNK ZnF1-3. The assay is described as follows: nsRBNS (natural sequence RNA bind-n-seq); RBNS binding buffer (assumed for nsRBNS): 25 mM Tris pH 7.5, 150 mM KCl, 3 mM MgCl2, 0.01% Triton X-100, 500 ug/ml BSA, 20 U/ml SUPERase-In, 4 C; UNK is unkempt and MSI1 is Musashi-1; names of the RNAs are library labels; protein concentration not given here; high values mean tight binding.
As for B1, the binding signal stood at 0.717 enrichment R. For B2 the value was 1.15 enrichment R; for B3, 1.58 enrichment R. The molecule B4 showed a binding signal of 0.793 enrichment R. For B5 the value was 0.942 enrichment R; for B6, 0.367 enrichment R. For B7 the value was 2.03 enrichment R; for B8, 0.857 enrichment R. For B9 the value was 0.947 enrichment R. The molecule B10 returned a binding signal of 1.45 enrichment R. For B11 the value was 0.927 enrichment R; for B12, 0.466 enrichment R.

The molecule B13 yielded a binding signal of 1.54 enrichment R. For B14 the value was 0.639 enrichment R.
